Results reported in PubChem BioAssay (NCATS).
The inconclusive results got no clear call from the source; some entries with a clear call stand among them for comparison. Potencies of inconclusive entries are doubtful fits and often do not repeat. Activity calls are given as the source filed them. The call rests on the fitted dose curve; in most records, active means well fitted activation curve with a large enough effect; inconclusive means small, poorly fitted or top-dose-only effect; inactive means no such curve, though single readings can be large or run the other way.

These compounds were tested against Cellular tumor antigen p53 (Homo sapiens) (UniProt P04637) (assay: Primary qHTS for small molecule compounds that upregulate eGFP-tagged delta133p53alpha (in N-terminal) cells. (AID 2060322;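 further: cells pre-induced with doxycycline then dosed without doxycycline; nearly all actives have a fitted effect of over 75% in size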;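 on activation: series mostly up to about 56 µM; 0% = DMSO vehicle and 100% = reference activator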)). Settings: NCI-H358 eGFP-delta133p53alpha fluorescence, 24 h; activation: hits give high values.
UniProt P04637, sequence (P04637 whole entry, looked up): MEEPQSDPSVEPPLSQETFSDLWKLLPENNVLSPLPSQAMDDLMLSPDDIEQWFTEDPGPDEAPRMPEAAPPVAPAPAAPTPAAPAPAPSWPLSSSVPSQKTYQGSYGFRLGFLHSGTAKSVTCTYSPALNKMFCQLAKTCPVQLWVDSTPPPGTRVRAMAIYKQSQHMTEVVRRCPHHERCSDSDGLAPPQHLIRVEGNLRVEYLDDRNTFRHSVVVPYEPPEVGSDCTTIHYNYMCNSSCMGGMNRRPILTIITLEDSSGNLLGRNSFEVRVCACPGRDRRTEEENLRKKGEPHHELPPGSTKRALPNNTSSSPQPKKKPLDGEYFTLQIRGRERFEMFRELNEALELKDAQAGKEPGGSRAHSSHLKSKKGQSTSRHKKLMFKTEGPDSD
Outline: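 NCI-H358 cells pre-induced 24 h with 10 ng/ml doxycycline for eGFP-delta133p53alpha, plated dox-free and exposed 24 h at 37C to titrated compounds. Fixed, Hoechst-stained; gated GFP peak intensity by laser scanning cytometry, normalized to DMSO (0%) and 57.5 uM 5-azacytidine (100%).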
Potency means the concentration at half of the fitted maximal effect; tags describe the fitted curve by direction and shape.

SMILES | Potency | activation
CNC1CN(c2ccc3c(=O)c(C(=O)O)cn(-c4nccs4)c3n2)CC1OC (stereo not given) | inconclusive: 4.9 µM [activator, single point] | 
C=C1C(=O)OC2/C=C(\C)CC/C=C(\C=O)C(OC)C(OC(=O)C(C)CC)C12 (stereo not given) | active: 16.6 µM | 
O=C(O)c1cc(=O)cc(C(=O)O)[nH]1 |  | inactive: -16.3%
CC(=O)NO | inconclusive: 6.92 µM [activator, single point] | 
COc1ccc2ccc(=O)oc2c1CC=C(C)C |  | inactive: -15%
C#C[C@]1(O)CC[C@H]2[C@@H]3CCC4=C/C(=N/O)CC[C@@H]4[C@H]3CC[C@@]21CC | inconclusive: 26.9 µM [activator, single point] | 
O=C(O)/C=C/c1ccc(O)c(O[C@@H]2O[C@H](CO)[C@@H](O)[C@H](O)[C@H]2O)c1 |  | inactive: 16%
COc1cc2c3cc1Oc1cc(ccc1O)C[C@@H]1c4c(cc(OC)c(O)c4Oc4ccc(cc4)C[C@@H]3N(C)CC2)CC[N+]1(C)C |  | inactive: 19.8%
COC1C=C([C@@H]2CC=C3[C@@]4(C)C(CC[C@]32C)[C@@]2(C)C=CC(=O)C(C)(C)C2C[C@H]4OC(C)=O)C(=O)O1 (stereo not given in full) | inconclusive: 7.38 µM [activator, partial curve, poor fit] | 
COc1cc(C=C2CCC/C(=C\c3ccc(O)c(OC)c3)C2=O)ccc1O | active: 19.5 µM | 
COc1ccc(OC)c(C(O)CNC(=O)CN)c1 (stereo not given) |  | inactive: 8.47%
CCCCC(CC)COC(=O)c1ccc(N(C)C)cc1 (stereo not given) |  | inactive: 0.837%
COc1ccc(CCN2CCC(Nc3nc4ccccc4n3Cc3ccc(F)cc3)CC2)cc1 | inconclusive: 12.3 µM [activator, partial curve, poor fit] | 
COc1ccc2[nH]c(=O)c3c(c2c1)OC(C)(C)C=C3 | inconclusive: 2.39 µM [activator, full curve, poor fit] | 
Nc1cc(C(F)(F)F)ccc1S | inconclusive: 38.9 µM [activator, single point] | 
Cn1ncc(Cl)c1-c1cc(C(=O)N[C@H](CN)Cc2ccc(F)c(F)c2)oc1Cl | inconclusive: 37.9 µM [activator, single point] | 
O=C(C=CC=Cc1ccc2c(c1)OCO2)N1CCCCC1 | inconclusive: 0.306 µM [activator, full curve, poor fit] | 
CCCCCCCCCCCCCCCC(=O)NCCO | inconclusive: 6.92 µM [activator, single point] | 
CC(=O)Nc1nc2c(Oc3cc(-c4ccc(C(F)(F)F)cc4)ncn3)cccc2s1 | inconclusive: 30.1 µM [activator, single point] | 
C/C=C/c1ccc2c(c1)[C@@H](C)[C@H](c1ccc(O)cc1)O2 | inconclusive: 37.9 µM [activator, single point] | 

SMILES | Potency | activation
COc1ccc2cc3c(NC(=O)c4ccco4)nn(C)c3nc2c1 | inconclusive: 4.26 µM [activator, partial curve, poor fit] | 
COc1cc(N)c(Cl)cc1C(=O)NC1CCN(CCCOc2ccc(F)cc2)CC1OC (stereo not given) |  | inactive: 13%
C[C@@H]1C[C@@H](O)[C@@]23CO[C@@H](O)[C@@H]2CCC[C@@H]3[C@@]12C[C@@H](c1ccoc1)OC2=O | inconclusive: 3.71 µM [activator, single point] | 
C=C(C(=O)OC)[C@@H]1CC=C2C=CC(=O)[C@H](C)[C@@]2(C)C1 | inconclusive: 0.0048 µM [activator, single point] | 
Cc1cc(Nc2ncc3cc(-c4c(Cl)cccc4Cl)c(=O)n(C)c3n2)ccc1F | inconclusive: 0.953 µM [activator, full curve, poor fit] | 
CC(=O)OC1CC2C3(C)CCC(OC(=O)CC(=O)O)C(C)(C)C3CCC2(C)C2(C)CCC(C3(C)CCC(=O)O3)C12 (stereo not given) | inconclusive: 8.28 µM [activator, partial curve, poor fit] | 
CCNC(=O)CCCC=CC[C@@H]1[C@H](C=CC(O)CCc2ccccc2)[C@@H](O)C[C@@H]1O (stereo not given in full) |  | inactive: -2.33%
Cc1ccc2nc(NC(=O)CSc3nc4c(c(=O)n3-c3ccc(F)cc3)SCC4)sc2c1 | inconclusive: 37.9 µM [activator, single point] | 
N#C/C(=C1\Nc2ccccc2S1)c1ccnc(NCCc2cccnc2)n1 | active: 19 µM | 
Fc1ccc(-c2nc(-c3c(F)cccc3F)[nH]c2-c2ccncc2)cc1 | inconclusive: 10.7 µM [activator, partial curve, poor fit] | 
O=C(C=Cc1c(C(=O)O)[nH]c2cc(Cl)cc(Cl)c12)Nc1ccccc1 |  | inactive: 33.2%
O=C(O)c1ccc[n+]([O-])c1 | inconclusive: 21.9 µM [activator, single point] | 
CN(C)C/C=C/C(=O)Nc1cccc(C(=O)Nc2ccc(Nc3nccc(-c4cccnc4)n3)cc2)c1 | inconclusive: 4.26 µM [activator, single point] | 
Cc1nnc(C(C)C)n1C1C[C@H]2CC[C@@H](C1)N2CC[C@H](NC(=O)C1CCC(F)(F)CC1)c1ccccc1 (stereo not given in full) | inconclusive: 19.3 µM [activator, partial curve] | 
COc1cc(O)cc(OC2OC(CO)C(O)C(O)C2O)c1 (stereo not given) |  | inactive: 21.4%
NC(=O)c1cnc(N[C@@H]2CCCC[C@H]2N)nc1Nc1cccc(-n2nccn2)c1 | inconclusive: 37.9 µM [activator, single point] | 
CCc1cc(CC[C@]2(C3CCCC3)CC(O)=C(Cc3nc4nc(C)cc(C)n4n3)C(=O)O2)cc(CC)n1 |  | inactive: -29.5%
O=C1COc2c(CCNCCN(C(=O)CCNCCc3ccc(Cl)c(Cl)c3)C3CCCCC3)ccc(O)c2N1 | inconclusive: 43.2 µM [activator, single point] | 
O=C(CCCCC(=O)Nc1c(I)cc(I)c(C(=O)O)c1I)Nc1c(I)cc(I)c(C(=O)O)c1I |  | inactive: 2.82%
CCC(C)/C=C(C)/C=C/C1=CC2=C(Cl)C(=O)C(C)(OC(C)=O)C(=O)C2=CN1C1CCCCN(C(CCC(N)=O)C(=O)O)C1=O (stereo not given) |  | inactive: 2.68%
